Measurements from PMC6212790.
This is one part of the list. At the low end of the ranking the order means little.

biological target: T1, GST-Rok (full length) (UniProt O34857); experiment: protein binding microarray; conditions: Rok is a gene silencer of Bacillus subtilis; high values mean tight binding; most listed sequences are background and not binding sites; double strand, one strand shown;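 note: rank score from −0.5 (least bound) to 0.5 (best bound)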
T1 sequence: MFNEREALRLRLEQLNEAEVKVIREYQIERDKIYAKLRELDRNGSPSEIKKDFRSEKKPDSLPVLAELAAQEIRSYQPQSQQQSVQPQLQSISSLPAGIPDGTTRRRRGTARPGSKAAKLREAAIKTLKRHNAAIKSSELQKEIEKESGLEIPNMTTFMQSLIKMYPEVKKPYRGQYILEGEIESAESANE

| Sequence | binding signal |
| --- | --- |
| GTCGACTA | 0.233 E-score |
| ACGTCAGA | -0.0925 E-score |
| AGCATCGC | -0.235 E-score |
| AGGAGTTA | 0.0221 E-score |
| CAGGTAGC | 0.1 E-score |
| GAAACGAA | -0.0434 E-score |
| ACGCCGCC | -0.272 E-score |
| GAGGAGCC | -0.402 E-score |
| GACAAGTC | -0.207 E-score |
| CCTAATCC | 0.0472 E-score |
| AAACTGTT | 0.0239 E-score |
| GCGTAGAC | -0.196 E-score |
| AAACGCAT | -0.0892 E-score |
| AAACGGGG | -0.163 E-score |
| CCGATTCA | 0.0266 E-score |
| CTCCTAAA | -0.089 E-score |
| CCACATCC | -0.0738 E-score |
| GATGCTGA | -0.195 E-score |
| ACCTTTCC | -0.149 E-score |
| CAGGAATA | -0.0271 E-score |
| AACGTTAC | -0.0148 E-score |
| ACTTTGAC | -0.0452 E-score |
| CTGATTCC | -0.0756 E-score |
| ACCGGTCA | 0.047 E-score |
| GAATCGCC | -0.0242 E-score |

| Sequence | binding signal |
| --- | --- |
| ACAATACA | 0.0994 E-score |
| GTCTTAAA | -0.0475 E-score |
| CGGAGCGC | -0.158 E-score |
| AGGGCCGG | -0.344 E-score |
| TCATATGA | 0.125 E-score |
| CGATTACG | -0.158 E-score |
| GAAACTCA | -0.01 E-score |
| AAAAATGG | 0.012 E-score |
| AAAGTCTC | 0.0185 E-score |
| GGAGGACC | -0.28 E-score |
| CAACGGTC | -0.298 E-score |
| ATTTCTCG | 0.153 E-score |
| CTCGTATC | -0.104 E-score |
| GATCTAAA | -0.0495 E-score |
| CCCTCTTC | -0.325 E-score |
| GATGTCAA | 0.033 E-score |
| ATAGTCCC | -0.245 E-score |
| GCCTATCC | -0.285 E-score |
| GAAGTTAA | 0.277 E-score |
| CACAACGG | -0.183 E-score |
| ACTCAAAG | -0.233 E-score |
| CAAACGTA | 0.125 E-score |
| AGCCTCAT | -0.263 E-score |
| ATTGGCTG | -0.134 E-score |
| AACTCTAA | 0.0673 E-score |

| Sequence | binding signal |
| --- | --- |
| CGTTACAC | -0.039 E-score |
| CGCGACCA | -0.0832 E-score |
| GAGTTGCA | 0.0118 E-score |
| ATAACCGC | -0.00309 E-score |
| CAATCAAA | 0.0994 E-score |
| GTCAAGTA | 0.239 E-score |
| GCAATCGC | -0.0987 E-score |
| ACTCTATA | 0.126 E-score |
| ACTCAATG | 0.215 E-score |
| CTTCGCCA | -0.129 E-score |
| TGCTAACA | 0.0651 E-score |
| TACGTGCA | 0.108 E-score |
| ATACCAAA | 0.189 E-score |
| AATGAATG | -0.0226 E-score |
| AACGAACA | 0.136 E-score |
| ATTATATG | 0.269 E-score |
| ATAACGTG | 0.084 E-score |
| AGTTGTTG | 0.155 E-score |
| GGGACCAC | -0.293 E-score |
| CCCCGTGA | -0.334 E-score |
| ATGTGCTG | -0.127 E-score |
| CACGAGGG | -0.36 E-score |
| AACGTAAC | 0.0801 E-score |
| AAATTAGG | 0.148 E-score |
| ATCGTACC | -0.00745 E-score |

| Sequence | binding signal |
| --- | --- |
| AAGAGTGA | 0.0519 E-score |
| CATCGGCG | -0.00694 E-score |
| CACTGCGC | -0.221 E-score |
| CGGGCGAA | -0.268 E-score |
| GGAATGTA | 0.103 E-score |
| GGAAGGCA | -0.325 E-score |
| ACATCTCT | -0.12 E-score |
| AACGTGGG | -0.169 E-score |
| CAACAGTA | 0.316 E-score |
| GGTCGGCA | -0.225 E-score |
| ATCAGGTA | 0.0696 E-score |
| CAGGAACC | -0.0635 E-score |
| AATTCCCT | 0.0143 E-score |
| ATTTTGTG | 0.208 E-score |
| GATCGGGA | -0.0834 E-score |
| CCGGGCCC | -0.409 E-score |
| CGCGGGCC | -0.275 E-score |
| CTGATTCA | -0.025 E-score |
| AATCCTAT | 0.192 E-score |
| AGGCAGAA | -0.157 E-score |
| ACCGTGCT | -0.016 E-score |
| ACTGCCTA | 0.0132 E-score |
| TCCTGCCA | -0.0317 E-score |
| CCATCTGA | -0.0252 E-score |
| CCGCAAGC | -0.337 E-score |

| Sequence | binding signal |
| --- | --- |
| AGGCAACG | -0.102 E-score |
| GTTTTCCA | -0.128 E-score |
| GCGCGGCC | -0.375 E-score |
| GAGGTGTA | 0.203 E-score |
| GGTGTGAC | -0.26 E-score |
| ACAGAGCC | -0.122 E-score |
| GAACCACA | -0.128 E-score |
| CACCGCAA | -0.109 E-score |
| CAAAGATC | 0.0833 E-score |
| AATGGAGA | 0.163 E-score |
| ACGTATGA | 0.0263 E-score |
| CCCACACA | -0.116 E-score |
| TAGGCGAA | 0.0111 E-score |
| ATAAGCAA | 0.132 E-score |
| GTCCTTCA | -0.095 E-score |
| CTAAGGAA | 0.0227 E-score |
| TAAACCCA | 0.00789 E-score |
| CACCCTTC | -0.324 E-score |
| ACCTCGCG | -0.188 E-score |
| CTAATCGC | 0.18 E-score |
| CAATGAAA | -0.13 E-score |
| AGAGGGCC | -0.435 E-score |
| GCTGGGAA | -0.265 E-score |
| AATACTTC | 0.235 E-score |
| CCTAGGAG | -0.131 E-score |

| Sequence | binding signal |
| --- | --- |
| AAGCCGTG | -0.213 E-score |
| ACAATACG | 0.0216 E-score |
| CCATTCAA | -0.121 E-score |
| ATCATTCG | 0.0238 E-score |
| AATATGAC | 0.147 E-score |
| AAAAAAAG | -0.111 E-score |
| GCTCAGCC | -0.0544 E-score |
| ACGTACTA | 0.287 E-score |
| CTCTGGAC | -0.187 E-score |
| AGCCGCCG | -0.276 E-score |
| GAATAGAC | -0.0551 E-score |
| CGTAATAA | 0.27 E-score |
| CCTTTACG | -0.19 E-score |
| GTCATTTA | 0.171 E-score |
| ACGAGGCT | -0.202 E-score |
| TCGGCCAA | -0.13 E-score |
| CATCGATA | 0.283 E-score |
| GACGCGCC | -0.252 E-score |
| GGACCACC | -0.443 E-score |
| GCCCAGCC | -0.392 E-score |
| CCAGAACA | -0.0297 E-score |
| GAGTGAGC | -0.0409 E-score |
| GTTTAGTA | 0.272 E-score |
| CCGCGTTC | -0.185 E-score |
| GATTGTTA | 0.233 E-score |

| Sequence | binding signal |
| --- | --- |
| AAATATGG | 0.261 E-score |
| AAGCAATG | -0.0894 E-score |
| CGTCCGGC | -0.137 E-score |
| GAATCTGA | -0.103 E-score |
| AATGTTTC | 0.0499 E-score |
| AAGCGCGG | -0.113 E-score |
| CAAGCGGA | 0.0458 E-score |
| AGGCCTCG | -0.277 E-score |
| AGCTCCAA | -0.151 E-score |
| CCCGTTAC | -0.0164 E-score |
| CCGTGGCC | -0.268 E-score |
| GGTATCAC | 0.196 E-score |
| GCTTCTCC | -0.142 E-score |
| GTCGTAGA | 0.0479 E-score |
| CGTTTCCC | -0.185 E-score |
| TCTGAAGA | -0.0674 E-score |
| GAACCATC | 0.0458 E-score |
| ATGATGTG | 0.157 E-score |
| ATGAATGG | -0.0647 E-score |
| CTATATAA | 0.345 E-score |
| CACCCAAA | -0.0657 E-score |
| ACATAGCC | -0.113 E-score |
| TCCCAGAA | -0.15 E-score |
| AGACAAAA | -0.0398 E-score |
| GCGCATAC | 0.0802 E-score |

| Sequence | binding signal |
| --- | --- |
| CCTCTACG | -0.202 E-score |
| CCCAACTC | -0.0204 E-score |
| AAGTCCAT | 0.162 E-score |
| CAGGTTAA | 0.13 E-score |
| ATTATAAG | 0.141 E-score |
| CAAATACC | 0.126 E-score |
| ACAGACAG | 0.106 E-score |
| TACGGCCA | -0.2 E-score |
| AAAAAAAC | 0.185 E-score |
| ATAGCCTC | -0.165 E-score |
| AAGTTACC | 0.172 E-score |
| CCAGTCGA | -0.264 E-score |
| AAAGTTCA | 0.137 E-score |
| TTGCGAAA | 0.0532 E-score |
| ACCTAATA | 0.176 E-score |
| ACCCTCGC | -0.0467 E-score |
| GGATAACA | 0.199 E-score |
| CGTCTTGA | -0.147 E-score |
| ATTGGCTC | -0.0706 E-score |
| TCTGCTCA | 0.0881 E-score |
| ACGCTAGG | -0.0353 E-score |
| CAGTACAG | 0.132 E-score |
| CATCATAG | 0.129 E-score |
| CTTCAAAA | -0.0626 E-score |
| GCGAGGCA | -0.26 E-score |

| Sequence | binding signal |
| --- | --- |
| ATACAAAA | 0.278 E-score |
| ACTCTACG | 0.117 E-score |
| GGAAACAA | 0.207 E-score |
| AATCCCAA | 0.0249 E-score |
| AACCGAGA | -0.0875 E-score |
| AAGTGGAT | 0.0996 E-score |
| TAAAAATA | 0.369 E-score |
| CGTCTCAC | -0.207 E-score |
| GATTTTAA | 0.254 E-score |
| AAATCACA | 0.117 E-score |
| CACCACGG | -0.0449 E-score |
| ATTTTTCG | 0.226 E-score |
| AATATCTC | 0.203 E-score |
| ACCATTTA | 0.238 E-score |
| AGGCACTG | -0.0252 E-score |
| CTTTTGCA | 0.00115 E-score |
| GAGTTAGA | 0.214 E-score |
| CGTAGAAA | 0.359 E-score |
| AATAGTTG | 0.313 E-score |
